Reference: paper PMC12820563
The other results are listed elsewhere or left out. The list includes weakly bound sequences.

Each sequence was assayed against T1, MBP-FoxP3dN (UniProt Q99JB6) (assay: PD-seq (MBP pull-down with sequencing)). Conditions: 20 mM Tris-HCl pH 7.5, 100 mM NaCl, 1.5 mM MgCl2, 0.4 uM protein, 0.1 uM dsDNA library, 30 min, room temperature, amylose pull-down; high values mean tight binding; double strand, one strand shown.
T1 sequence: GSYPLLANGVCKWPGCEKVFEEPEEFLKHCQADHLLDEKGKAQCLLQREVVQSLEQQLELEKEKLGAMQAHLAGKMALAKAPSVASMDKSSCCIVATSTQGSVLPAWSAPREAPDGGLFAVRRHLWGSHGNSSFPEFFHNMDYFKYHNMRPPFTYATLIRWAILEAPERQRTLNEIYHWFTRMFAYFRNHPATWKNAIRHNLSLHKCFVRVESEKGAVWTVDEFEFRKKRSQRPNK
With “GATGATTGTTCTCCCAGCTGATGAATTGGATTATTCGAGTAAACAAATTTTCCTAATCTTTCTGTTCAAGCGCCATCTAC” the binding signal (RPM ratio (pull-down/input)) was 1.35. Work on “GATGATTGTTCTCCCAGCTGATGAATTTACCGTTTCGAGTAAACAAATTTTCCTAATCTTTCTGTTCAAGCGCCATCTAC” yielded a binding signal (RPM ratio (pull-down/input)) of 0.609. “GATGATTGTTCTCCCAGCTGATGAATTTCATTAGTCGAGTAAACAAATTTTCCTAATCTTTCTGTTCAAGCGCCATCTAC” showed a binding signal (RPM ratio (pull-down/input)) of 0.798. “GATGATTGTTCTCCCAGCTGATGAATTGTATGCATCGAGTAAACAAATTTTCCTAATCTTTCTGTTCAAGCGCCATCTAC” was tested, and the binding signal (RPM ratio (pull-down/input)) was 2.97. With “GATGATTGTTCTCCCAGCTGATGAATTCATAAAGTCGAGTAAACAAATTTTCCTAATCTTTCTGTTCAAGCGCCATCTAC” the binding signal (RPM ratio (pull-down/input)) was 0.238. “GATGATTGTTCTCCCAGCTGATGAATTCGGTAACTCGAGTAAACAAATTTTCCTAATCTTTCTGTTCAAGCGCCATCTAC” was tested, and the binding signal (RPM ratio (pull-down/input)) was 1.26. In the case of “GATGATTGTTCTCCCAGCTGATGAATTCACAATTTCGAGTAAACAAATTTTCCTAATCTTTCTGTTCAAGCGCCATCTAC”, the binding signal (RPM ratio (pull-down/input)) is reported as 0.405. In the case of “GATGATTGTTCTCCCAGCTGATGAATTAAATTGCTCGAGTAAACAAATTTTCCTAATCTTTCTGTTCAAGCGCCATCTAC”, the binding signal (RPM ratio (pull-down/input)) is reported as 0.966. For “GATGATTGTTCTCCCAGCTGATGAATTGGCCCGATCGAGTAAACAAATTTTCCTAATCTTTCTGTTCAAGCGCCATCTAC”, the binding signal (RPM ratio (pull-down/input)) was 0.218. Work on “GATGATTGTTCTCCCAGCTGATGAATTAGAGATCTCGAGTAAACAAATTTTCCTAATCTTTCTGTTCAAGCGCCATCTAC” yielded a binding signal (RPM ratio (pull-down/input)) of 0.32. In the case of “GATGATTGTTCTCCCAGCTGATGAATTTGGGGATTCGAGTAAACAAATTTTCCTAATCTTTCTGTTCAAGCGCCATCTAC”, the binding signal (RPM ratio (pull-down/input)) is reported as 0.573. “GATGATTGTTCTCCCAGCTGATGAATTATGATGCTCGAGTAAACAAATTTTCCTAATCTTTCTGTTCAAGCGCCATCTAC” showed a binding signal (RPM ratio (pull-down/input)) of 1.73. In the case of “GATGATTGTTCTCCCAGCTGATGAATTAAACGAATCGAGTAAACAAATTTTCCTAATCTTTCTGTTCAAGCGCCATCTAC”, the binding signal (RPM ratio (pull-down/input)) is reported as 0.265. Work on “GATGATTGTTCTCCCAGCTGATGAATTCCTCTATTCGAGTAAACAAATTTTCCTAATCTTTCTGTTCAAGCGCCATCTAC” yielded a binding signal (RPM ratio (pull-down/input)) of 0.318. “GATGATTGTTCTCCCAGCTGATGAATTGTCTTTCTCGAGTAAACAAATTTTCCTAATCTTTCTGTTCAAGCGCCATCTAC” showed a binding signal (RPM ratio (pull-down/input)) of 0.551. “GATGATTGTTCTCCCAGCTGATGAATTAACCCCATCGAGTAAACAAATTTTCCTAATCTTTCTGTTCAAGCGCCATCTAC” showed a binding signal (RPM ratio (pull-down/input)) of 0.292. Work on “GATGATTGTTCTCCCAGCTGATGAATTAAAGCGTTCGAGTAAACAAATTTTCCTAATCTTTCTGTTCAAGCGCCATCTAC” yielded a binding signal (RPM ratio (pull-down/input)) of 1.23. In the case of “GATGATTGTTCTCCCAGCTGATGAATTTAGAACTTCGAGTAAACAAATTTTCCTAATCTTTCTGTTCAAGCGCCATCTAC”, the binding signal (RPM ratio (pull-down/input)) is reported as 0.331. In the case of “GATGATTGTTCTCCCAGCTGATGAATTGTAATACTCGAGTAAACAAATTTTCCTAATCTTTCTGTTCAAGCGCCATCTAC”, the binding signal (RPM ratio (pull-down/input)) is reported as 0.756. Sequence “GATGATTGTTCTCCCAGCTGATGAATTTCGCCGATCGAGTAAACAAATTTTCCTAATCTTTCTGTTCAAGCGCCATCTAC” has a binding signal (RPM ratio (pull-down/input)) of 0.618. “GATGATTGTTCTCCCAGCTGATGAATTCTTCTTATCGAGTAAACAAATTTTCCTAATCTTTCTGTTCAAGCGCCATCTAC” showed a binding signal (RPM ratio (pull-down/input)) of 0.288. “GATGATTGTTCTCCCAGCTGATGAATTAGCCTGCTCGAGTAAACAAATTTTCCTAATCTTTCTGTTCAAGCGCCATCTAC” was tested, and the binding signal (RPM ratio (pull-down/input)) was 0.578. “GATGATTGTTCTCCCAGCTGATGAATTAACCCGCTCGAGTAAACAAATTTTCCTAATCTTTCTGTTCAAGCGCCATCTAC” was tested, and the binding signal (RPM ratio (pull-down/input)) was 0.208. In the case of “GATGATTGTTCTCCCAGCTGATGAATTCGCCACGTCGAGTAAACAAATTTTCCTAATCTTTCTGTTCAAGCGCCATCTAC”, the binding signal (RPM ratio (pull-down/input)) is reported as 0.944. “GATGATTGTTCTCCCAGCTGATGAATTACCCAGGTCGAGTAAACAAATTTTCCTAATCTTTCTGTTCAAGCGCCATCTAC” was tested, and the binding signal (RPM ratio (pull-down/input)) was 0.153. “GATGATTGTTCTCCCAGCTGATGAATTGGTGTAATCGAGTAAACAAATTTTCCTAATCTTTCTGTTCAAGCGCCATCTAC” gave a binding signal (RPM ratio (pull-down/input)) of 1.35. “GATGATTGTTCTCCCAGCTGATGAATTAGACCAGTCGAGTAAACAAATTTTCCTAATCTTTCTGTTCAAGCGCCATCTAC” gave a binding signal (RPM ratio (pull-down/input)) of 0.233. In the case of “GATGATTGTTCTCCCAGCTGATGAATTTCAGCCGTCGAGTAAACAAATTTTCCTAATCTTTCTGTTCAAGCGCCATCTAC”, the binding signal (RPM ratio (pull-down/input)) is reported as 0.356. Sequence “GATGATTGTTCTCCCAGCTGATGAATTCTTCACGTCGAGTAAACAAATTTTCCTAATCTTTCTGTTCAAGCGCCATCTAC” has a binding signal (RPM ratio (pull-down/input)) of 0.264. With “GATGATTGTTCTCCCAGCTGATGAATTGATCATATCGAGTAAACAAATTTTCCTAATCTTTCTGTTCAAGCGCCATCTAC” the binding signal (RPM ratio (pull-down/input)) was 0.657. Sequence “GATGATTGTTCTCCCAGCTGATGAATTGCGAAGGTCGAGTAAACAAATTTTCCTAATCTTTCTGTTCAAGCGCCATCTAC” has a binding signal (RPM ratio (pull-down/input)) of 0.469. For “GATGATTGTTCTCCCAGCTGATGAATTGTCCACATCGAGTAAACAAATTTTCCTAATCTTTCTGTTCAAGCGCCATCTAC”, the binding signal (RPM ratio (pull-down/input)) was 0.682.
